Here are results for 83 variants from the RNAGym collection of RNA variant scans (doi:10.1073/pnas.2313332121).

B1: TPR 5TU (parent)
chain: GGAUCUUCUCGAUCUAACAAAAAAGACAAAUCUGCCACAAAGCUUGAGAGCAUCUUCGGAUGCAGAGGCGGCAGCCUUCGGUGGCGCGAUAGCGCCAACGUUCUCAACUAUGACACGCAAAACGCGUGCUCCGUUGAAUGGAGUUUAUCAUG

This sample is rich in variants without activity.

This series covers variants of B1. The series is described as follows: polymerase ribozyme fitness, log enrichment relative to wild type (log ratio); higher = more active; in vitro selection for triplet polymerase activity. An outline of the steps:
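Mutant libraries of both subunits of a heterodimeric triplet polymerase ribozyme were PCR-built, transcribed, and selected once in triplicate, with frozen incubation at −7 °C and capture of gel-excised extended constructs on streptavidin beads before RT-PCR. Illumina sequencing of input and output libraries was filtered to genotypes with ≥10 input reads and ≥1 read per output. Fitness is the logarithm of genotype enrichment over wild-type enrichment, using inverse-variance-weighted replicate averages. The logarithm is base 2.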
As for C5U U7C A21U G86A C131A, the “polymerase ribozyme fitness (log ratio)” value was -4.16.

As for U6A G81C G94U C125U, the “polymerase ribozyme fitness (log ratio)” value is -2.57. As to C5U A26C C95A C123A G143U C149A, the “polymerase ribozyme fitness (log ratio)” value is at most -4.2. For C5U G88C C114U G141U, the “polymerase ribozyme fitness (log ratio)” value was at most -4.2.

With C5G C14G C43G A73G G92U A97C, the “polymerase ribozyme fitness (log ratio)” value is at most -4.2. With C5G U9C A97G G141C, the “polymerase ribozyme fitness (log ratio)” value is -3.27.

As to C5U C51A C54G G59C G84A C116G, the “polymerase ribozyme fitness (log ratio)” value is -3.05.

C5U G50U C69U G92C C105U C108G: the “polymerase ribozyme fitness (log ratio)” value was at most -4.2.

As for U6C U33G U56C G81C C95U, the “polymerase ribozyme fitness (log ratio)” value is at most -4.2. As to U6C A22G A37C A40C C85U G126A, the “polymerase ribozyme fitness (log ratio)” value is at most -4.2. U7C A20U A22G G50A G58C C93A A110C U134A: the “polymerase ribozyme fitness (log ratio)” value was at most -4.2. Consider U6A G25C A29C G42C G67C C79U A91U C105U A110G A147U, for which the “polymerase ribozyme fitness (log ratio)” value was at most -4.2. The figure for U6C C93G is -3.54; for U7A C14G C32U A106G U148C it is at most -4.2. Regarding C5G A49U A52U U56A G67C C85U C87U G92A, the “polymerase ribozyme fitness (log ratio)” value was at most -4.2. For the variant C5U A41U C72U G94A C99G, the “polymerase ribozyme fitness (log ratio)” value is at most -4.2. Regarding C5G U33G A37U A60C C75U G94U C108U, the “polymerase ribozyme fitness (log ratio)” value is at most -4.2. In the case of C5G A21G U55A C57U A147C, the “polymerase ribozyme fitness (log ratio)” value is -0.914.

With U6G A138U, the “polymerase ribozyme fitness (log ratio)” value was at most -4.2. For C5G A24U C35G C76A C96A C108U A121U G141U, the “polymerase ribozyme fitness (log ratio)” value was at most -4.2. Turning to C5G A39G G59A G84U C96A A121U, the “polymerase ribozyme fitness (log ratio)” value was at most -4.2.

As to U6G C10U C69G C85U A97C C103G, the “polymerase ribozyme fitness (log ratio)” value is at most -4.2.

Turning to U6A C79A G86U A89C C103G, the “polymerase ribozyme fitness (log ratio)” value was at most -4.2.

U7A A23U C54U U55A G92U A98U U146G: the “polymerase ribozyme fitness (log ratio)” value was at most -4.2. The result for C5G G50C C85U reads -3.69; that for U7C A17G A23U A52C C76G C85U C93A G128U G152C, at most -4.2; that for C5G A29C A47C G50A G86A U90A A91U G143C, at most -4.2. The result for U7A A19C G59U C87U A121G A137C A142C reads at most -4.2; that for U6A A20G A66U G67U C69U, at most -4.2. With C5G U13C C18U G46U C108U A122G, the “polymerase ribozyme fitness (log ratio)” value was at most -4.2. For U7C A19C A24U A30G A49C C118G, the “polymerase ribozyme fitness (log ratio)” value was at most -4.2.

Turning to C5G A40C C76U G92A C149U, the “polymerase ribozyme fitness (log ratio)” value is at most -4.2. The figure for U6A C10G A22C U44A G83A G92U U101C G124A G143C is at most -4.2. The result for U6G A49C C51U G88A A107U A142G reads at most -4.2; that for U6G A30C C43G A52C C54U U77A C85G A119G U148G, at most -4.2. With U7A A47C A60C C79U G83A, the “polymerase ribozyme fitness (log ratio)” value is at most -4.2. The result for C5G U55A reads -0.729; that for U7A G58A C85G U90A C93A U146G, at most -4.2; that for U6C C8U A19G C27A U31C C75G G86C A122G C149U, at most -4.2.

Regarding U7A A49U A52G A64U A73U U77C C85A A150C, the “polymerase ribozyme fitness (log ratio)” value is at most -4.2. The result for U6A G11A A30C A52G C85U C87U C95G C103U G141U U144A reads at most -4.2.

As for C5G U82A C87A C93U G133C C149A, the “polymerase ribozyme fitness (log ratio)” value is at most -4.2. Take U6A C85U: the “polymerase ribozyme fitness (log ratio)” value was -0.519.

Regarding U7A U9G C38A G141A U144G, the “polymerase ribozyme fitness (log ratio)” value is at most -4.2. Take U6A A24U G81U C85G G140U: the “polymerase ribozyme fitness (log ratio)” value was at most -4.2.

For U6A A22G C125U, the “polymerase ribozyme fitness (log ratio)” value was -0.424.

Take U6G A22U U33G C54U C76G G84A G141C: the “polymerase ribozyme fitness (log ratio)” value is at most -4.2.

Take C5G A21U C76G G92U C96A C114G U127A: the “polymerase ribozyme fitness (log ratio)” value was at most -4.2. Consider U6G G58U U61A C96G A107C U109G, for which the “polymerase ribozyme fitness (log ratio)” value is at most -4.2. As to U7A A22C A24U C54G G83A, the “polymerase ribozyme fitness (log ratio)” value is at most -4.2.

Take C5G U7C A16C C27U C32G A49C U53G C125A A137U G143C: the “polymerase ribozyme fitness (log ratio)” value was at most -4.2. Take U6C C35U G80U G81C C93G: the “polymerase ribozyme fitness (log ratio)” value was at most -4.2. For the variant U7A G48C U56A G68U C85A A98G C125U, the “polymerase ribozyme fitness (log ratio)” value is at most -4.2. Turning to U6G A28G G58U C85U, the “polymerase ribozyme fitness (log ratio)” value is at most -4.2. Turning to U6A C14G C85G U90G A113U, the “polymerase ribozyme fitness (log ratio)” value was at most -4.2. The figure for U6C U9A A30U A49U C85U U146C is at most -4.2.

With U7A C8G U13G U90G C95G U134A, the “polymerase ribozyme fitness (log ratio)” value was at most -4.2. In the case of U6G C10U A29C G94C A113G C125U, the “polymerase ribozyme fitness (log ratio)” value was at most -4.2. For C5G C57G G84A G141C C149A, the “polymerase ribozyme fitness (log ratio)” value is at most -4.2.

In the case of U7A A12U A52C C93A C108A U135G G140A, the “polymerase ribozyme fitness (log ratio)” value was at most -4.2.

U6G A64C G92C U104G G152U: the “polymerase ribozyme fitness (log ratio)” value was at most -4.2.

For U6G U31A C43U A52G C87A C108G A115U A147U, the “polymerase ribozyme fitness (log ratio)” value was at most -4.2. In the case of U6A A12U A29U A64C, the “polymerase ribozyme fitness (log ratio)” value is at most -4.2. As to C5G U33C G50C C57U G71A A73U A91U, the “polymerase ribozyme fitness (log ratio)” value was at most -4.2. For U6A A12U, the “polymerase ribozyme fitness (log ratio)” value was 0.206.

Regarding U6A A22U A41C G67A C79G U109A G112A A119C G143U, the “polymerase ribozyme fitness (log ratio)” value was at most -4.2. The result for U6A U56A U82G C103U reads -1.06; that for C5G C85U A142U, -1.45; that for C5G U53A U61A C75A C76G C85U U127G U135G, at most -4.2.

As for C5G A29U A64U G86U A150G, the “polymerase ribozyme fitness (log ratio)” value is at most -4.2.

Turning to U6C C87A, the “polymerase ribozyme fitness (log ratio)” value was at most -4.2. The result for C5U G46U A47C U55A G59C G74A U82A G88U C96A U144G U146G reads at most -4.2; that for U6G A21U C87A C93U, at most -4.2. The figure for U6G C99U U111A A115U is at most -4.2; for U6A U55A it is -1.4; for U6A C18G C87A A91G A120U U139A it is at most -4.2. For the variant U7C A21G C76A C87A C103A U151G, the “polymerase ribozyme fitness (log ratio)” value is at most -4.2.

U6A G88U C93U C95G: the “polymerase ribozyme fitness (log ratio)” value was at most -4.2.

On to C5G C32U C96U A122G, for which the “polymerase ribozyme fitness (log ratio)” value is -3.38.

In the case of C5G A41C G42A G50U C93G C96A, the “polymerase ribozyme fitness (log ratio)” value was at most -4.2. Take C5U C51A G58A G81C: the “polymerase ribozyme fitness (log ratio)” value is -1.81.

Consider U6C G42A A73G C93U G128U A147G G152U, for which the “polymerase ribozyme fitness (log ratio)” value is at most -4.2.

U6G C27G C54A A66U G92A C95U C103A C114G G124U G133U G143C: the “polymerase ribozyme fitness (log ratio)” value was at most -4.2.
